# In PubChem BioAssay AID1508624 (National Center for Advancing Translational Sciences (NCATS), 2021):
# The whole screen tested about 48,000 compounds, of which about 120 (0.25%) were called active. Another 4% or so got no clear call; they are omitted. The call rests on the fitted dose curve; in most records, active means well fitted activation curve with a large enough effect; inconclusive means small, poorly fitted or top-dose-only effect, or another doubt; inactive means no such curve, though single readings can be large or run the other way. Some of the results follow.
# Test: Primary qHTS for Identification of Small Molecule Activators of Huntingtin-Antisense Promoter Activity; further: nearly all actives have a fitted effect of over 55% in size
# Details: HEK293 HTT-AS promoter firefly luciferase reporter (activity 0% = vehicle and -100% = no light), 24 h; series mostly up to 57.5 µM; activity change, positive = activation: at the top concentration
# How it was run: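 Luminescence was read after Dual-Glo reagent and a 10 min room-temperature incubation. Values were normalized to vehicle (0% activity) and zero RLU (-100% activity). Reporter HEK293 cells had been exposed to compounds (up to 57.5 uM final) for 24 h.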
# Potency means the concentration at half of the fitted maximal effect.
SMILES,"activity change, positive = activation",Potency
Cc1ccc2oc(-c3cc(NC(=O)c4ccc5c(c4)OCCO5)cc(C)c3O)nc2c1,inactive: -0.673%,–
COc1cc(NC(=O)c2nc3ccccc3nc2C)cc(OC)c1OC,inactive: 0.352%,–
CCC(C(=O)N1CCN(c2ccccc2F)CC1)n1nc(C)c2sc3ccccc3c2c1=O (centres undefined),inactive: -16.2%,–
COc1cc(CN(C(=O)c2cccc(Cl)c2)c2ccccn2)cc(OC)c1OC,inactive: -26.4%,–
COc1ccc(NC(=O)CCn2nc(-c3ccccc3OC)c3c(C)cc(C)nc32)cc1,inactive: -23.4%,–
Cc1ccccc1OCc1ccc(-c2nc(C#N)c(N3CCN(C)CC3)o2)o1,inactive: -29.4%,–
Cc1ccc(Cl)cc1N1CCN(C(=O)c2cccn3c(=O)c4cc(Cl)ccc4nc23)CC1,inactive: -7.73%,–
CC1=C(C(=O)OCC(C)C)C(c2ccc(OCc3ccccc3)cc2)N2C(=O)CCSC2=N1 (centres undefined),inactive: -18.6%,–
Cc1ccc(-n2nc(C(=O)Nc3ccc(Cl)cn3)c3c4ccccc4n(C)c3c2=O)cc1,inactive: -15.5%,–
O=C(C1CCCN(S(=O)(=O)c2ccc(Br)s2)C1)N1CCN(c2ccc(F)cc2)CC1 (centres undefined),inactive: -37.4%,–
Cc1cc(NC(=O)CSc2nc3c([nH]c4ccccc43)c(=O)n2-c2ccccc2)no1,inactive: -17.8%,–
O=c1cc(-c2ccc(F)cc2)nc(SCc2nc(-c3cccc(Cl)c3)no2)[nH]1,inactive: -7.76%,–
CCc1ccc(NC(=O)CSc2nccn2-c2cccc(C)c2C)cc1,inactive: -25.8%,–
CCc1ccc(NC(=O)c2ccc(F)c(S(=O)(=O)N(C)C3CCCCC3)c2)cc1,inactive: -44.3%,–
Cc1ccc(C2CC(=O)N(Cc3ccccc3)c3c2c(C)nn3-c2nc(C)cc(C)n2)cc1 (centres undefined),inactive: -12.8%,–
CC1CN(C(=O)N2CCC(C(=O)NCCC3=CCCCC3)CC2)c2cc(Cl)ccc2O1 (centres undefined),inactive: -8.46%,–
COc1ccc(NC(=O)CSc2nc3ccncc3[nH]2)c(OC)c1,inactive: -22.4%,–
Cc1ccc(C)n1-c1c(C(=O)NCCCN2CCN(c3ccc(F)cc3)CC2)sc2ncccc12,inactive: 2.79%,–
Cc1ccc2c(=O)cc(C(=O)Nc3sc4c(c3C(N)=O)CCCC4)oc2c1,inactive: 9.67%,–
Cc1ccc(Cl)cc1-n1ncc2c(NCCCn3ccnc3)ncnc21,inactive: -3.78%,–
O=C(C1CCN(S(=O)(=O)Cc2ccccc2)CC1)N1CCN(c2ccc(F)cc2)CC1,inactive: -25.7%,–
O=C(Nc1ccc2c(c1)N(C1CCCC1)C(=O)c1ccccc1S2)c1cccc(F)c1,inactive: -29.8%,–
CC(C)Oc1ccc(CNC(=O)CCn2c(=O)c3cccn3c3ccc(F)cc32)cc1,inactive: -7.81%,–
COc1cccc(-n2c(=O)c3c(C)c(C(=O)N(C)C)sc3n(CC(=O)Nc3ccc(C)cc3Cl)c2=O)c1,inactive: -11.3%,–

SMILES,"activity change, positive = activation",Potency
COc1cccc(CNC(=O)C2CCCN(c3ncnc4onc(-c5ccc(F)cc5)c34)C2)c1 (centres undefined),inactive: -4.56%,–
CC(C)OCCCNC(=O)CN1C(=O)CSc2ccc(S(=O)(=O)N3CCCCC3)cc21,inactive: -9.99%,–
O=C(NCCc1csc(-c2cccc(F)c2)n1)c1ccc(Br)o1,inactive: -21.8%,–
Cc1ccc(Cl)cc1NCc1nnc2n1CCCCC2,inactive: -11.2%,–
O=C1CC(c2nc(-c3cccc(Cl)c3)no2)CN1c1ccc2c(c1)OCCO2 (centres undefined),inactive: -39.1%,–
Cc1n[nH]c(C)c1S(=O)(=O)N(CC(=O)NCc1ccccc1Cl)c1ccc(C(C)C)cc1,inactive: -35.3%,–
Cc1ccc(-n2nnnc2C2CCN(S(=O)(=O)c3ccc(OC(F)(F)F)cc3)CC2)cc1,inactive: -0.321%,–
CCOc1ccccc1CNC(=O)CCc1cn(Cc2ccc(Cl)cc2)c2ccccc12,inactive: -27.9%,–
CCN(C(=O)Cn1c(=O)oc2cc(S(=O)(=O)N3CCCC3)ccc21)c1cccc(C)c1,inactive: -16.6%,–
COc1ccc(NC(=O)CSc2nc(-c3ccco3)cc(C(F)(F)F)n2)c(OC)c1,inactive: -7.35%,–
CCCCN(C)C(=O)C1CCC(CNS(=O)(=O)c2ccc3c(c2)CC(C)N3C(C)=O)CC1 (centres undefined),inactive: -36.9%,–
CCCc1nn2c(=O)cc(COc3ccc(/C=C(\C#N)C(=O)Nc4ccc(F)cc4)cc3)nc2s1,inactive: -2.92%,–
CCN(CC)C(=O)Cn1c(SCCOc2ccc(Cl)cc2)nc2ccccc21,inactive: 3.01%,–
O=C(CCS(=O)(=O)c1cc2c(cc1Cl)NC(=O)CO2)NCCc1ccc(Cl)cc1,inactive: -7.45%,–
CC(=O)N1c2ccccc2C(=O)C1N1CCN(c2ccc(F)cc2)CC1 (centres undefined),inactive: -17.3%,–
COc1ccc(NC(=O)c2ccc(CNS(=O)(=O)c3ccc4c(c3)C(C)(C)C(=O)N4C)cc2)cc1,inactive: -35.5%,–
OC[C@H]1O[C@@H](n2cnc3c(=S)nc[nH]c32)[C@H](O)[C@@H]1O,inactive: -57.3%,–
COc1ccc(OC)c(S(=O)(=O)Nc2cc3c(C(C)=O)c(C)oc3c3ccccc23)c1,inactive: -27.2%,–
COC(=O)c1c(NC(=O)COc2cc(C)c(Cl)c(C)c2)sc2c1CCCC2,inactive: 1.26%,–
COc1cccc(C2CC(=O)Nc3c2c(=O)n(C)c2ncnn32)c1OC (centres undefined),inactive: -6.32%,–
CCOc1ccc(NS(=O)(=O)c2ccc3c(c2)CCN3C(C)=O)cc1,inactive: -24.7%,–
COc1ccc(-c2nnc(SCC(=O)Nc3ccc(C(C)=O)cc3)nc2-c2ccc(OC)cc2)cc1,inactive: 1.43%,–
Cc1ccc(S(=O)(=O)NCC2CCC(C(=O)N(C)Cc3ccccc3)CC2)cc1 (centres undefined),inactive: -28%,–
Cc1ccc(OCC(=O)N(Cc2ccco2)C2CCS(=O)(=O)C2)cc1 (centres undefined),inactive: 7.78%,–

SMILES,"activity change, positive = activation",Potency
CC(Oc1ccc(F)cc1)C(=O)Nc1cc(-c2ccc(F)c(F)c2)no1 (centres undefined),inactive: -11.1%,–
CCOc1ccc(CCNC(=O)c2c(C)oc3ncnc(N4CCOCC4)c23)cc1,inactive: -13.7%,–
Cc1cc(C)cc(NC(=O)CN(C)S(=O)(=O)c2ccc3[nH]c4c(c3c2)CCCC4)c1,inactive: -25.2%,–
Cc1ccc(NC(=O)CN2C(=O)COc3ccc(S(=O)(=O)N4CCCCCC4)cc32)cc1C,inactive: -34.6%,–
COCCCNC(=O)CSc1nc2ccccc2c(=O)n1Cc1ccco1,inactive: 0.336%,–
N#C/C(=C\c1ccc(-c2ccc(F)cc2F)o1)c1nc2ccccc2[nH]1,inactive: -0.128%,–
CCOc1cccc(CNc2ccc(O)cc2)c1OCc1ccccc1Cl,inactive: -19.6%,–
COc1ccc(CNC(=O)c2ccc3[nH]c(C)c(C)c3c2)c(OC)c1,inactive: -10.3%,–
COc1ccc(C(=O)Nc2ccc(OCc3cc(=O)n4ccccc4n3)cc2)cc1,inactive: 12.5%,–
CCc1nnc2c(NCCc3ccc(OC)c(OC)c3)nc3ccccc3n12,inactive: -14.1%,–
COc1ccc(-c2onc(C)c2C)cc1S(=O)(=O)NCc1ccc(Br)cc1,inactive: -34.7%,–
CCN(CC)CCOC(=O)C(c1ccccc1)C1CCCCC1 (centres undefined),inactive: -11.8%,–
O=C(NC1CCCCC1)c1c[nH]c2ccc(S(=O)(=O)Nc3ccccc3F)cc2c1=O,inactive: -23.9%,–
CCOC(=O)c1ccc(NC(=O)c2c(NCc3sccc3C)sc3c2CCCCC3)cc1,inactive: -14.6%,–
CC(C)(C)c1ccc(C(=O)NC(Cc2c[nH]c3ccccc23)C(=O)OCC(=O)c2ccccc2)cc1 (centres undefined),inactive: 11.9%,–
CC1CCCN(c2cc3c(cc2F)c(=O)c(S(=O)(=O)c2cccc(Cl)c2)cn3C)C1 (centres undefined),inactive: -13.5%,–
COc1ccc(Cn2c(=O)[nH]c3cc(C(=O)N4CCN(c5cccc(OC)c5)CC4)ccc3c2=O)cc1,inactive: -23.8%,–
Cc1cccc(OCC(=O)Nc2ccc(-c3nc4cc(C)ccc4o3)c(O)c2)c1,–,active: 501 nM
CCC1CN(C(=O)N2CCC(C(=O)NCCC3=CCCCC3)CC2)c2cc(C)ccc2O1 (centres undefined),inactive: -16.4%,–
CCn1cc2nc(SCc3ccc(C)cc3)n(CCc3ccccc3)c(=O)c2n1,inactive: -21.8%,–
COc1ccc(S(=O)(=O)N(CC(=O)N(C)Cc2ccccc2)c2ccc(Cl)cc2)cc1,inactive: -24.9%,–
Cc1ccc(OCC(=O)Nc2ccc(Cl)c(-c3nc4ccccc4[nH]3)c2)cc1C,inactive: -23.8%,–
COc1cc(Cc2cnc(N)nc2N)cc(OC)c1OC,inactive: -10.2%,–
COc1ccc(NC(=O)CSc2nnc(NC(=O)Nc3ccccc3)s2)c(OC)c1,inactive: -2.22%,–

SMILES,"activity change, positive = activation",Potency
CCc1ccc(NC(=O)CSc2nc3ccccc3nc2Cc2ccccc2OC)cc1,inactive: -9.7%,–
O=C(Nc1nnc(S(=O)(=O)N2CCN(c3ccc(F)cc3)CC2)s1)c1ccc(Cl)cc1,inactive: -8.82%,–
COc1ccc(C)cc1NC(=O)C(=O)NCC1(c2ccccc2)CCCC1,inactive: -2.67%,–
CCCCSCCCNC(=O)CN1C(=O)COc2ccc(S(=O)(=O)N3CCC(C)CC3)cc21,inactive: -25.4%,–
Cc1ccc(Cl)cc1NC(=O)COCc1cc(-c2ccco2)on1,inactive: -7.47%,–
CC(C)(C)c1ccc(C2NC(=O)c3n[nH]c(-c4cccs4)c32)cc1 (centres undefined),inactive: -42.1%,–
Cc1ccc(NC(=O)Cn2c(CCC(=O)O)ccc2-c2ccc(Cl)cc2)cc1,inactive: -13%,–
COC(=O)c1ccc(NC(=O)Cn2nc(C(=O)Nc3ccc(C)cc3)ccc2=O)cc1,inactive: -4.14%,–
COc1ccccc1N1CCN(c2ncnc3c2nc2n3CCCC2)CC1,inactive: -32.6%,–
Cc1ccc(Cn2cc(CCC(=O)NCc3ccccc3F)c3ccccc32)cc1,inactive: -18.7%,–
CCN(CC)S(=O)(=O)c1ccc2c(c1)N(CC(=O)N(C)Cc1ccccc1)C(=O)CO2,inactive: -21.1%,–
O=C(CNC(=O)c1ccc(Cl)cc1)OCc1cc(=O)n2ccsc2n1,inactive: -2.93%,–
COc1ccc(-c2[nH]c3c(c2-c2c(-n4cccc4)n(C)c(=O)n(C)c2=O)c(=O)n(C)c(=O)n3C)cc1,inactive: -2.11%,–
COc1cccc(C(=O)Nc2cc3cc(OC)ccc3oc2=O)c1,inactive: 0.0126%,–
Cc1cc(C)c2c(n1)SCCN2C(=O)Nc1ccc(C(=O)Nc2cc(Cl)ccc2C)cc1,inactive: 1.19%,–
Cc1cc(C(=O)NCCc2ccc(Cl)cc2)c2c(C)nn(-c3cccc(F)c3)c2n1,inactive: -15.4%,–
COC(=O)c1cc2sc(Cl)cc2n1Cc1nc(-c2ccc(OC)cc2)oc1C,inactive: -0.7%,–
COc1ccc(N(CC(=O)NCCc2cccc(C)c2)S(=O)(=O)c2c(C)noc2C)cc1,inactive: -32%,–
COc1ccc(CNC(=O)CSc2ncc3c(n2)-c2cc(Cl)ccc2N(Cc2ccccc2)S3(=O)=O)cc1OC,inactive: -17.4%,–
COc1ccccc1NC(=O)Cn1c(=O)n(CCc2ccccc2)c(=O)c2c3c(sc21)CN(C(C)=O)CC3,inactive: -39.6%,–
Cc1nnc(SCc2nc(-c3ccc(Cl)cc3)no2)n1-c1ccc(F)cc1,inactive: -39.1%,–
O=C(c1ccccc1)n1nc(-c2ccco2)nc1NCc1cccs1,inactive: 33.5%,–
